Scores whose standard error is large were omitted. Two further conditions of the source, in which the scores hardly spread, are not listed. In variant names, del marks residues removed and ins residues inserted between the two positions. For some assays here: The concentration of ogerin is not given here.

B1: GPR68, Q15743 (parent)
chain: MGNITADNSSMSCTIDHTIHQTLAPVVYVTVLVVGFPANCLSLYFGYLQIKARNELGVYLCNLTVADLFYICSLPFWLQYVLQHDNWSHGDLSCQVCGILLYENIYISVGFLCCISVDRYLAVAHPFRFHQFRTLKAAVGVSVVIWAKELLTSIYFLMHEEVIEDENQHRVCFEHYPIQAWQRAINYYRFLVGFLFPICLLLASYQGILRAVRRSHGTQKSRKDQIQRLVLSTVVIFLACFLPYHVLLLVRSVWEASCDFAKGVFNAYHFSLLLTSFNCVADPVLYCFVSETTHRDLARLRGACLAFLTCSRTGRAREAYPLGAPEASGKSGAQGEEPELLTKLHPAFQTPNSPGSGGFPTGRLA

Series [1] covers variants of B1. The series is described as follows: cAMP reporter score (Enrich2 score, wild type = 0); higher = more signal; HEK293T, FACS bins.
Series [2] covers variants of B1. The series is described as follows: surface expression score (Enrich2 score, wild type = 0); higher = more signal; HEK293T, FACS bins.

For the variant F36V, the cAMP reporter score is -0.162 in series [1] (pH 5.5); 0.869 in series [1] (pH 6, modulator: ogerin); 2.74 in series [1] (pH 6.5, modulator: ogerin). For the same variant, the surface expression score in series [2] was 0.127.
In the case of F36N, the cAMP reporter score was -1.14 in series [1] (pH 5.5); -0.923 in series [1] (pH 6); -0.576 in series [1] (pH 6, modulator: ogerin). In addition, the surface expression score in series [2] is -2.58.
For the variant F36Y, the cAMP reporter score was -1.41 in series [1] (pH 5.5); -0.518 in series [1] (pH 6); -1.67 in series [1] (pH 6, modulator: ogerin); -1.33 in series [1] (pH 6.5, modulator: ogerin). For the same variant, the surface expression score in series [2] is -1.68.
For the variant L41_S42insGS, the cAMP reporter score in series [1] (pH 5.5) is -0.855; in series [1] (pH 6), -0.278; in series [1] (pH 6, modulator: ogerin) it was -1.63; in series [1] (pH 6.5, modulator: ogerin) it was -1.58. Besides, the surface expression score in series [2] is -2.53.
V34_G35insG: the cAMP reporter score in series [1] (pH 5.5) was -1.34; in series [1] (pH 6, modulator: ogerin) it was -1.64; in series [1] (pH 6.5, modulator: ogerin) it was -0.891. Moreover, the surface expression score in series [2] is -1.96.
Regarding L43_Y44insG, the cAMP reporter score in series [1] (pH 5.5) was -0.246; in series [1] (pH 6), 0.339; in series [1] (pH 6, modulator: ogerin) it was 0.098; in series [1] (pH 6.5, modulator: ogerin) it was 0.325. Also, the surface expression score in series [2] is -2.07.
Regarding C40_S42del, the cAMP reporter score in series [1] (pH 5.5) was -1.39; in series [1] (pH 6), -1.26; in series [1] (pH 6, modulator: ogerin), -1.43; in series [1] (pH 6.5, modulator: ogerin) it was -1.37. The surface expression score in series [2] was -2.42.
Consider N39_C40insG, for which the cAMP reporter score in series [1] (pH 5.5) is -0.971; in series [1] (pH 6), -0.493; in series [1] (pH 6, modulator: ogerin) it was -0.878; in series [1] (pH 6.5, modulator: ogerin), -0.664. The surface expression score in series [2] was -2.91.
Y47D: the cAMP reporter score is -1.21 in series [1] (pH 5.5); -0.777 in series [1] (pH 6); -1.27 in series [1] (pH 6, modulator: ogerin); -0.915 in series [1] (pH 6.5, modulator: ogerin). In addition, the surface expression score in series [2] is -3.32.
As to Y47C, the cAMP reporter score was -0.472 in series [1] (pH 5.5); -0.28 in series [1] (pH 6); -0.291 in series [1] (pH 6, modulator: ogerin); -0.568 in series [1] (pH 6.5, modulator: ogerin). In addition, in series [2], the surface expression score was -0.847.
Take Y47A: the cAMP reporter score is 0.121 in series [1] (pH 5.5); -0.008 in series [1] (pH 6); -0.122 in series [1] (pH 6, modulator: ogerin); -0.011 in series [1] (pH 6.5, modulator: ogerin).
With Y47E, the cAMP reporter score in series [1] (pH 5.5) is -1.59; in series [1] (pH 6) it was -1.17; in series [1] (pH 6, modulator: ogerin), -1.38; in series [1] (pH 6.5, modulator: ogerin), -1. Moreover, the surface expression score in series [2] is -2.17.
On to Y47G, for which the cAMP reporter score in series [1] (pH 5.5) is -0.442; in series [1] (pH 6) it was -0.351; in series [1] (pH 6, modulator: ogerin), -0.871; in series [1] (pH 6.5, modulator: ogerin), -1.31. For the same variant, the surface expression score in series [2] is -1.92.
As to Y47I, the cAMP reporter score in series [1] (pH 5.5) stood at 1.21; in series [1] (pH 6), 1.35; in series [1] (pH 6, modulator: ogerin), 1.47; in series [1] (pH 6.5, modulator: ogerin) it was 2.04. Further, in series [2], the surface expression score was 0.992.
With Y47H, the cAMP reporter score in series [1] (pH 5.5) is -0.424; in series [1] (pH 6), -0.75; in series [1] (pH 6, modulator: ogerin), -1.13; in series [1] (pH 6.5, modulator: ogerin), -1.19. Besides, the surface expression score in series [2] was -1.22.
In the case of P37del, the cAMP reporter score is -1.07 in series [1] (pH 5.5); -0.464 in series [1] (pH 6); -1.03 in series [1] (pH 6, modulator: ogerin); -0.589 in series [1] (pH 6.5, modulator: ogerin). For the same variant, the surface expression score in series [2] was -2.28.
On to S42_L43insGS, for which the cAMP reporter score in series [1] (pH 5.5) was -1.65; in series [1] (pH 6, modulator: ogerin) it was -2.23; in series [1] (pH 6.5, modulator: ogerin), -1.45. Also, the surface expression score in series [2] was -3.02.
Regarding P37S, the cAMP reporter score in series [1] (pH 5.5) is -0.606; in series [1] (pH 6), -0.297; in series [1] (pH 6, modulator: ogerin), -0.767; in series [1] (pH 6.5, modulator: ogerin), -1.02. In addition, the surface expression score in series [2] is -1.59.
On to P37F, for which the cAMP reporter score in series [1] (pH 5.5) is -0.304; in series [1] (pH 6), -0.687; in series [1] (pH 6, modulator: ogerin) it was -1.01; in series [1] (pH 6.5, modulator: ogerin), -0.885. Besides, the surface expression score in series [2] was -1.88.
For P37W, in that order: -1.03, -0.764, -1.25, -0.968 and -2.23.
For P37R, the cAMP reporter score in series [1] (pH 5.5) is -1.03; in series [1] (pH 6), -1.27; in series [1] (pH 6, modulator: ogerin) it was -1.4; in series [1] (pH 6.5, modulator: ogerin), -0.802. Moreover, the surface expression score in series [2] was -2.62.
For P37V, in that order: -1.14, -0.548, -1.93, -1.2 and -1.49.
For P37A, in that order: -0.945, -0.021, -0.759, -0.754 and -1.88.
On to P37D, for which the cAMP reporter score in series [1] (pH 5.5) is -1.32; in series [1] (pH 6, modulator: ogerin) it was -1.37; in series [1] (pH 6.5, modulator: ogerin), -1.23. Besides, the surface expression score in series [2] is -2.04.
As to P37L, the cAMP reporter score is 0.124 in series [1] (pH 5.5); 0.372 in series [1] (pH 6); -0.36 in series [1] (pH 6, modulator: ogerin); -0.374 in series [1] (pH 6.5, modulator: ogerin). The surface expression score in series [2] is -2.19.
Take P37K: the cAMP reporter score in series [1] (pH 5.5) was -1.85; in series [1] (pH 6.5, modulator: ogerin), -2.4. Besides, the surface expression score in series [2] was -2.78.
Take P37E: the cAMP reporter score was -1.32 in series [1] (pH 5.5); -0.329 in series [1] (pH 6); -2.29 in series [1] (pH 6, modulator: ogerin); -1.52 in series [1] (pH 6.5, modulator: ogerin).
With P37T, the cAMP reporter score in series [1] (pH 5.5) was -0.944; in series [1] (pH 6) it was -1.04; in series [1] (pH 6, modulator: ogerin), -1.34; in series [1] (pH 6.5, modulator: ogerin) it was -1.42. In addition, in series [2], the surface expression score was -2.14.
For P37H, the cAMP reporter score in series [1] (pH 5.5) was -1.47; in series [1] (pH 6), -0.481; in series [1] (pH 6, modulator: ogerin), -1.62; in series [1] (pH 6.5, modulator: ogerin) it was -0.864. In series [2], the surface expression score was -2.32.
As for P37M, the cAMP reporter score in series [1] (pH 5.5) is -0.524; in series [1] (pH 6), -0.085; in series [1] (pH 6, modulator: ogerin), -0.7; in series [1] (pH 6.5, modulator: ogerin) it was -0.757. For the same variant, the surface expression score in series [2] was -1.86.
As for P37I, the cAMP reporter score in series [1] (pH 5.5) was -1.42; in series [1] (pH 6) it was -1.72; in series [1] (pH 6, modulator: ogerin) it was -1.57; in series [1] (pH 6.5, modulator: ogerin), -1.19. Besides, the surface expression score in series [2] is -2.15.

For the origin of these results see the GPR68 mutational scans of Howard et al. (2025).
